# Assay results published in PMC4336329 (PLoS ONE, 2015).
# Screen size: about 310,000 compounds; about 14,000 (4.5%) showed an effect of 50% or more. The effect is printed as a negative number. This is one part of the list.
# Target: human ether-à-go-go-related gene (hERG) potassium channel (human, UniProt Q12809)
# Experiment: primary screen, population patch clamp on CHO cells stably expressing hERG
# 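Also: peak tail current of the secondary pulse compared with the same well before compound.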
# human ether-à-go-go-related gene (hERG) potassium channel, sequence (Q12809 whole entry, looked up): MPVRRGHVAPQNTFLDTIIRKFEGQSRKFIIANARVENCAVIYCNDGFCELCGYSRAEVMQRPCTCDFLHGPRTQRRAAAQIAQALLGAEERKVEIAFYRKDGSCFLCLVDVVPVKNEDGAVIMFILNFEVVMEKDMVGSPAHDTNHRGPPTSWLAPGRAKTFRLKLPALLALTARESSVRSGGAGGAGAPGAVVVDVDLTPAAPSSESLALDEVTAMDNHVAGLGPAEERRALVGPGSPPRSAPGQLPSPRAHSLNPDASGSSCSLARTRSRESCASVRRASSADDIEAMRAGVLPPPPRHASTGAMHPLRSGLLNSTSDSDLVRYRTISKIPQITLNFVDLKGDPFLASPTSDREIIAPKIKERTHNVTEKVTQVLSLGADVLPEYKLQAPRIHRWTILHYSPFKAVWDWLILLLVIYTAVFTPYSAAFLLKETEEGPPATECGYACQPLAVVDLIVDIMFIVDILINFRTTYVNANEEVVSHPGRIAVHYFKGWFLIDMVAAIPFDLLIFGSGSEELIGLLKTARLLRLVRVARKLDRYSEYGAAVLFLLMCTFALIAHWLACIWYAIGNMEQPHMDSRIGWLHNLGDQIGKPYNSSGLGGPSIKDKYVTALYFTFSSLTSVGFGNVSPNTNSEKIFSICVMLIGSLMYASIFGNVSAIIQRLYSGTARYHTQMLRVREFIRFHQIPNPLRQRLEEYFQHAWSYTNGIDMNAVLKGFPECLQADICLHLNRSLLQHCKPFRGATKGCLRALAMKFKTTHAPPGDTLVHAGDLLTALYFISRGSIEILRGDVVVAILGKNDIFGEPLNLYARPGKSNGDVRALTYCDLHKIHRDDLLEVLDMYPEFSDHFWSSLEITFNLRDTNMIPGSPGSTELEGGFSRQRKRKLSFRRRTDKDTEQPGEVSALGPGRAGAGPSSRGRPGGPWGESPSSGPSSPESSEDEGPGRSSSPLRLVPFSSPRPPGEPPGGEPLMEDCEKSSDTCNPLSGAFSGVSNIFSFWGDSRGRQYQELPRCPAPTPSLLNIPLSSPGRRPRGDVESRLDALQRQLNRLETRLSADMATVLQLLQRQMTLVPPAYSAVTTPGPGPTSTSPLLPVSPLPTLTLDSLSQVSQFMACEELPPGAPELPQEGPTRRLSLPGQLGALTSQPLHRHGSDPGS
row,SMILES,"hERG current change (%, negative = inhibition) at 10uM"
1,CCN(CC)C(=O)c1ccc2c(=O)n(Cc3cccc(Br)c3)c(=S)[nH]c2c1,14%
2,O=C(CSc1nc(=O)n(CCCN2CCOCC2)c2c1CCC2)Nc1ccc(F)cc1F,-41.8%
3,COc1ccc(-n2nc(C(=O)Nc3nc4ccc(OC)cc4s3)c3ccccc3c2=O)c(OC)c1,5.1%
4,O=C(O)C1CCCN1C1=NS(=O)(=O)c2ccccc21 (centres unmarked),0.0855%
5,Cc1nnc2n(c1=O)C(CS(=O)(=O)c1ccc3ccccc3c1)CS2 (centres unmarked),1.28%
6,O=C(Nc1ccc(F)cc1)c1nc[nH]c1C(=O)Nc1ccccc1[N+](=O)[O-],-4.96%
7,COc1ccc2nc(SCC(=O)NC3CCCCC3C)[nH]c2c1 (centres unmarked),0.801%
8,Cc1ccc(C2CC(=O)C=C(O)C2)cc1 (centres unmarked),3.29%
9,O=C(NC(=S)Nc1cccc(Cl)c1N1CCCCC1)c1ccco1,26%
10,COC(=O)c1c(N)n(CCCN2CCOCC2)c2nc3ccccc3nc12,-29.9%
11,CC(C)CCNC(=O)CNC(=S)N(Cc1ccccc1)Cc1cccnc1,-24.4%
12,COC(=O)c1cc(-c2ccccc2)sc1N,11%
13,Nc1c(C(=O)NCc2ccccc2)c2nc3ccccc3nc2n1-c1ccc2c(c1)OCO2,5.58%
14,CCc1sc(N(C(=O)Cc2ccccc2)c2cccc(F)c2)nc1-c1ccc(C)cc1,-7.18%
15,CN1C(CC(=O)c2ccccc2)CCCC1CC(O)c1ccccc1 (centres unmarked),-82.4%
16,O=C(COC(=O)c1cc(=O)[nH]c2ccccc12)c1ccccc1,11.7%
17,O=C(COC(=O)C1CC(O)CN1S(=O)(=O)c1ccc(Cl)cc1)c1ccccc1 (centres unmarked),-31.7%
18,CCc1nc(SCC(=O)Nc2ccc([N+](=O)[O-])cc2)n[nH]1,-6.52%
19,COc1ccc(S(=O)(=O)N2CCN=C2SCc2cccc(C)c2)cc1,17.8%
20,O=C(N/N=C/c1ccccc1)c1cc(=O)[nH]c2ccccc12,5.04%
21,C=C(C)C(=O)Nc1cccc(C2=NOC3(C2)C[C@@H](C(N)=O)N(C(=O)CC(c2ccccc2)c2ccccc2)C3)c1 (some centres unmarked),-4.39%
22,CN1CCN(c2ccccc2NC(=O)c2ccc(-c3cccc([N+](=O)[O-])c3)o2)CC1,-51.8%
23,Cc1ccc(S(=O)(=O)N(CC(=O)O)Cc2ccco2)cc1,19.3%
24,CCCCn1c(/C=N/Nc2nc3ccccc3[nH]2)nc2ccccc21,-25.7%
25,Nc1nonc1-n1nnc(C(=O)N/N=C/c2ccccc2Cl)c1-c1ccccc1,22.9%
26,COc1ccccc1C(=O)NCC(=O)N/N=C/c1ccc([N+](=O)[O-])cc1,2.53%
27,CC(CCc1ccccc1)NC(=S)NC1CCCCC1 (centres unmarked),12%

row,SMILES,"hERG current change (%, negative = inhibition) at 10uM"
1,CCc1nnc2sc(-c3ccc(NC(=O)CSc4ccc(Cl)cc4)cc3)nn12,15%
2,CCOc1ccc2nc(SCC(=O)N3c4ccccc4Sc4ccccc43)c(C#N)cc2c1,9.47%
3,c1cnc(-c2noc(CN3CCN(C4C5CC6CC(C5)CC4C6)CC3)n2)cn1 (centres unmarked),6.38%
4,Cc1ccccc1NC(=O)COC(=O)c1ccc(S(C)(=O)=O)c([N+](=O)[O-])c1,-0.568%
5,CCOc1cccc(N(C(=O)CNC(=O)c2ccco2)C(C(=O)NCC2CCCO2)c2ccccc2)c1 (centres unmarked),1.86%
6,C#CCOCCOCCOCCNc1nc(N2CCN(C(=O)[C@H]([C@@H](C)O)n3cc(CCCC[NH3+])nn3)CC2)nc(N2CCN(C(=O)[C@H](CCCC[NH3+])n3cc(CC(C)O)nn3)CC2)n1.[Cl-] (some centres unmarked),2.63%
7,O=C1c2cccc3cccc(c23)C(=O)N1CCCn1ccnc1,-22%
8,O=c1c2ccccc2nc(-c2ccc(Cl)c(Cl)c2)n1O,13.9%
9,OC1CCCCC1N1CCC(c2ccccc2)CC1 (centres unmarked),-11.2%
10,CC(C)(C)NC(=O)C1CCN(c2ccc(S(=O)(=O)N3CCOCC3)cc2Cl)CC1,15.3%
11,O=C(Nc1ccccc1Sc1ccccc1)C1CCCO1 (centres unmarked),-2.9%
12,COc1ccc(-c2csc(C3=C(O)CN(Cc4ccc(Cl)cc4)C3=N)n2)cc1OC,-2.48%
13,CCc1nn(C(CC)C(=O)NCc2cccc(OC)c2OC)c(=O)c2cc3occc3n12 (centres unmarked),-8.06%
14,Cl.Clc1cccc(N2CCNCC2)c1,11.1%
15,CN(C)S(=O)(=O)c1cccc(CSCc2cccc(S(=O)(=O)N(C)C)c2)c1,22%
16,O=C(Cc1ccccc1)OCc1ccccc1,21%
17,Cc1ccc(-c2noc(=O)n2CC(=O)c2ccc(Cl)cc2)cc1,10.7%
18,COc1ccc(Cl)cc1NC(=O)CN(C)CC(=O)Nc1ccccc1N1CCOCC1.O=C(O)C(=O)O,-16.9%
19,COc1cccc(-c2cc(C(=O)N3CCN(Cc4ccc5c(c4)OCO5)CC3)on2)c1,-9.02%
20,NC(=O)c1nnn(-c2ccccc2)c1N,21.1%
21,CC(C)(C)C(=O)N/C(N)=N/c1nc2ccccc2o1,2.02%
22,CSc1ccc(NC(=O)NCCCN2CCN(c3ccccc3F)CC2)cc1,-55.1%
23,CCOC(=O)C1C(=O)CC(C)(O)C(C(=O)OCC)C1c1ccc(OCC)cc1 (centres unmarked),-1.39%
24,CCOC(=O)C1(Cc2ccccc2)CCN(Cc2ccc3cc(NC(C)=O)ccc3n2)CC1,-68.7%
25,C[C@H](N=C1NS(=O)(=O)c2ccccc21)C(=O)OCc1cc([N+](=O)[O-])cc2c1OCOC2,-15.6%
26,CC(=O)n1cc(/C=N/NC(=O)c2ccc([N+](=O)[O-])cc2)c2ccccc21,6.88%
